Read counts are not given, so values of variants with three or more changes are uncertain.
B1: LINE1-mini (parent)
chain: GGCAGAGCUCAACACAGCGUGGCAAAGUGGCUGUGGCUAGACUGCC

Variants of: B1
Test: self-cleavage, relative activity (ratio to wild type); higher = more cleavage; in vitro, sequencing; the parent is a self-cleaving ribozyme

| Variant | self-cleavage |
| --- | --- |
| A11C A25C G30A C37G G40C | 0.01 |
| A11G A25C U34A | 0.02 |
| A11C G17A G40A | 0.01 |
| A11C G21A G27A G44C | 0.02 |
| A11C C31U G33U | 0 |
| C10U G33A C45A | 0.07 |
| A11C C18U G19U C23A U32A | 0 |
| C10U G22U A26U G33A | 0.09 |
| C10U G21U G35U G36A C45G | 0.03 |
| C10U G21U C37G | 0.01 |
| A11C U20A G22C | 0.01 |
| A11C G17C A26G | 0.01 |
| A11G A12U G17U G29U | 0 |
| A11G A12C C13A A16C G19C G29A G40A G44A | 0.02 |
| A11G A26C U28C G30A C31A U32C U34C U38A G40U | 0 |
| C10U U28G C31U C37A C42G | 0.01 |
| C10U G33A U43C C45U | 0.02 |
| A11C A25U G35U C42U | 0.01 |
| A11G A16C G27C G44A | 0.03 |
| A11C C42U C45G | 0.01 |
| A11C A12U A14U | 0.03 |
| A11C A24G C42A | 0 |
| C10U G27C C37G | 0 |
| C10U U28C U38A | 0.03 |

| Variant | self-cleavage |
| --- | --- |
| A11G C15A A25G G36U | 0.01 |
| A11C G29C U34A | 0.03 |
| A11C G36U A41C | 0.02 |
| A11C A24C A26C C31A | 0.03 |
| A11G A14C G29A G40U | 0.01 |
| C10U G29C G35A | 0.06 |
| C10U G27U A41G | 0.02 |
| A11C G22C A25U G30U | 0.03 |
| C10U G29U U32C C42A | 0.02 |
| A11C U28C C45G C46A | 0 |
| A11C C18U G19U G22C | 0 |
| C10U G19A G27U C37A A39U G40U | 0.02 |
| A11C G40C C46G | 0.02 |
| C10U G40A U43C | 0.13 |
| A11C C13U U34G G36A | 0.03 |
| A11C G17C G30A | 0.03 |
| A11C A12C C13U A14G G33U | 0.01 |
| A11G A12U G36U | 0.04 |
| A11C C15A C31A G33U C42G | 0.02 |
| A11C G22U G30A C31A G44C C46G | 0.01 |
| C10U G22U C23A | 0.11 |
| A11G A12U U28C G29U | 0.02 |
| A11C C13U G17A G40U | 0.04 |
| A11C G30U U38A | 0.08 |

| Variant | self-cleavage |
| --- | --- |
| A11C A12G U32C G36U | 0.03 |
| A11C G27C C46A | 0.05 |
| C10U U38A G40C | 0.03 |
| C10U G33C C37U | 0.04 |
| A11G C15A C18G C37G | 0 |
| A11C C13A G33C | 0 |
| A11G A24C G36U G44A C46A | 0 |
| C10U U20G G27C | 0.09 |
| A11G C13A G19U A41U | 0.02 |
| C10U G19C C42U | 0.01 |
| A11G A25C A26C G27A G30A U38C | 0.01 |
| A11G C13G C23U | 0 |
| C10U U20G U43G G44A | 0.02 |
| A11G A14C G17A C18G A25C A41G | 0.01 |
| A11G A12G C37G | 0 |
| A11C G17U G30A G44A C45A | 0.01 |
| A11C G29A C45U | 0.05 |
| A11C C13U A25U A39U | 0.02 |
| A11C A24U G35A | 0.03 |
| A11C A14G G21C G33U G36U | 0.02 |
| C10U G22A G44C | 0.26 |
| A11C G27U G30C | 0.09 |
| A11G A24G A26C | 0 |
| A11C C13U C23A | 0.04 |

| Variant | self-cleavage |
| --- | --- |
| C10U G21A U34A C45U | 0.08 |
| A11G C13G G33A C45U | 0.03 |
| C10U G27C U38A | 0.05 |
| A11C A14U G19C G36U A39U | 0.01 |
| A11C G29C U32A C37A | 0.03 |
| A11C G22U U32G G40U A41U | 0 |
| A11G A14C G27U | 0.03 |
| A11C C18G G21U C31U U34C | 0.02 |
| A11C G17U A26U | 0.01 |
| C10U G40U U43C | 0.06 |
| A11G A25U G30U U34G | 0 |
| A11C C13A G21U C46U | 0.02 |
| A11C G19A G44C | 0.01 |
| A11C G19A G44A | 0.02 |
| A11C G19U G44C | 0.03 |
| A11G A14C G21A A25C G33U | 0.01 |
| A11C C13G G29U G33C G40U | 0.01 |
| A11C C23A G27A U28G | 0.01 |
| C10U G22C C23A | 0.18 |
| A11G A16U C46U | 0 |
| A11C C13U U20C G21C G30U | 0 |
| A11C A12U C46A | 0.01 |
| A11C C13G A41U | 0.02 |
| C10U G30C G35A | 0.09 |

| Variant | self-cleavage |
| --- | --- |
| C10U G27C U34A U43A | 0.03 |
| A11C A24G G29U G36U | 0.03 |
| A11C G19A U20C A39U C42G | 0.01 |
| A11C U38C G44A C46G | 0 |
| A11C C18U G29A | 0.08 |
| A11C A14C U20A U38A | 0.02 |
| A11C U20G G44U | 0 |
| A11G A26C U38C | 0.02 |
| A11C C15G C46A | 0.01 |
| A11C C13A C23U U34G | 0 |
| C10U G40C C45G | 0.08 |
| A11G A26G G44U | 0.01 |
| C10U G36U C46G | 0.02 |
| A11C C37A U38C | 0.01 |
| A11G A26C C37U G40A | 0 |
| A11C A12C G29U C31G | 0.02 |
| A11C G21A G22A G36C A41G | 0.02 |
| A11C A14C A26U G27U U28C G35A G36C C46U | 0 |
| C10U G30U C45G | 0.08 |
| C10U G27C U32A | 0.05 |
| A11G A25U C37U C45G | 0.01 |
| A11C A41C C46A | 0.03 |
| A11G A16C U28C U38A C46A | 0.01 |
| C10U G19A U43A | 0.02 |

| Variant | self-cleavage |
| --- | --- |
| A11C G22A A39U G40A | 0.02 |
| A11C A24C A26U | 0.01 |
| A11C C18U G22A G30A | 0.04 |
| A11C A14G A26C G33C U38A G40A U43G | 0.01 |
| C10U G27A C31A | 0.79 |
| A11C A16U G44C C45U | 0.01 |
| A11C A26C G27U G35C C45G | 0.02 |
| C10U G30A G33A | 0.02 |
| C10U U20A A39U G44U C46A | 0.02 |
| A11C C23G C37G | 0 |
| A11C G30U G35A | 0.02 |
| A11C A16G A24C A41C C42A | 0 |
| C10U G19U C31U G44C | 0.19 |
| C10U G19A U28A | 0.24 |
| A11C G35U U38G | 0 |
| A11C G17C G19C C42G | 0 |
| A11G C15A G21C G30C C31U U34A C46A | 0.02 |
| A11C A12U U34A A39C G40A | 0.04 |
| A11C U20G A26U | 0.02 |
| A11G C13A G21A G40U | 0.01 |
| C10U G27U G36A | 0.05 |
| A11G A16U C37G A39C A41U | 0 |
| A11G A16U G27A U28A | 0.08 |
| A11C G22A C46U | 0.15 |

| Variant | self-cleavage |
| --- | --- |
| A11C A14C G19A A24G | 0.03 |
| A11G C13U G22U | 0.01 |
| C10U U20A A24U U38C A41C U43A | 0.01 |
| A11C C15U G33A G36A G44A C45A | 0 |
| A11C C18A U38C A39G G44A | 0.04 |
| C10U G19U G29U | 0.57 |
| A11G A26C U32G | 0.02 |
| C10U G21C U34G C42G | 0.03 |
| C10U G29U C37A | 0.01 |
| A11C C15A G40U | 0 |
| C10U G33A A39C U43A | 0.04 |
| A11C C15G A25G C31A G40A | 0 |
| A11C C15A G22C A26C A41U | 0.01 |
| A11C U20C C23U G35A A39U | 0.01 |
| A11C G21C G27A G29A | 0 |
| A11C G36U C37U | 0.01 |
| A11C G40A C42G | 0.03 |
| C10U G27U U43C | 0.05 |
| A11C C13A A41C | 0.05 |
| A11C C13A C15A | 0.01 |
| A11C C13A G17U G35A | 0.04 |
| C10U G35C G36A | 0.02 |
| C10U G21C G27U A39U | 0.33 |

Source: the RNAGym collection of RNA variant scans (doi:10.7554/elife.90254)
